# The list shows a part of the results. Repeats are few or missing, and single values can be far off.
# Columns and labels:
# Experiment in all cases: cell count relative to DMSO control; melanoma cells; higher = more viable cells
# Details in all cases: library dose: low library concentration; 72 h
# WM115 = system: WM115
# WM1716 = system: WM1716
# WM1745 = system: WM1745
# WM3526 = system: WM3526
# WM3619 = system: WM3619
# WM451Lu = system: WM451Lu
# 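Further: cell number obtained by counting DAPI-stained nuclei in high-throughput microscope images with image analysis software, screen run in 1,536-well plates.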
Structure (SMILES),cell count (WM115),cell count (WM1716),cell count (WM1745),cell count (WM3526),cell count (WM3619),cell count (WM451Lu)
"CN(C)S(=O)(=O)c1ccc2c(c1)/C(=C/c1cc3c([nH]1)CCCC3)C(=O)N2 + c1cc(-c2cnn3cc(-c4ccc(OCCN5CCCCC5)cc4)cnc23)ccn1 [Dorsomorphin] (first compound 0.4 µM, partner dose 0.4 µM)",80.1%,115%,68.4%,87.9%,122%,92.9%
"C=CCn1c(=O)c2cnc(Nc3ccc(N4CCN(C)CC4)cc3)nc2n1-c1cccc(C(C)(C)O)n1 + CN(NC(=O)CC(=O)NN(C)C(=S)c1ccccc1)C(=S)c1ccccc1 [STA4783] (first compound 0.02 µM, partner dose 0.006 µM)",74%,83%,36.9%,95.1%,59.8%,89.8%
"C[C@]1(c2nc3c(C(N)=O)cccc3[nH]2)CCCN1 [Veliparib] + NC(=O)Nc1cc(-c2cccc(F)c2)sc1C(=O)N[C@H]1CCCNC1 [AZD7762] (first compound 1.4 µM, partner dose 0.02 µM)",82.8%,79.5%,101%,80.5%,38.8%,117%
"Cc1nc(Nc2ncc(C(=O)Nc3c(C)cccc3Cl)s2)cc(N2CCN(CCO)CC2)n1 [dasatanib] + CN(C)S(=O)(=O)c1ccc2c(c1)/C(=C/c1cc3c([nH]1)CCCC3)C(=O)N2 [SU6656] (first compound 0.004 µM, partner dose 0.4 µM)",53.2%,73.1%,61.1%,105%,93.6%,67%
"C[C@]1(c2nc3c(C(N)=O)cccc3[nH]2)CCCN1 [Veliparib] + C[C@@H]1CCN(C(=O)CC#N)C[C@@H]1N(C)c1ncnc2[nH]ccc12 [CP690550] (first compound 1.4 µM, partner dose 1 µM)",87.6%,83%,72.4%,103%,86.5%,92%
"CN(C)S(=O)(=O)c1ccc2c(c1)/C(=C/c1cc3c([nH]1)CCCC3)C(=O)N2 + O=C(O)C(=O)Nc1sc2c(c1C(=O)O)CCNC2 [TCS401] (first compound 0.4 µM, partner dose 1.66667 µM)",60.1%,88.1%,86.3%,90.4%,77.7%,99.1%
"C=CCn1c(=O)c2cnc(Nc3ccc(N4CCN(C)CC4)cc3)nc2n1-c1cccc(C(C)(C)O)n1 + CN(C)S(=O)(=O)c1ccc2c(c1)/C(=C/c1cc3c([nH]1)CCCC3)C(=O)N2 [SU6656] (first compound 0.02 µM, partner dose 0.4 µM)",74%,97.5%,85.9%,89%,78.2%,101%
"Cc1nc(Nc2ncc(C(=O)Nc3c(C)cccc3Cl)s2)cc(N2CCN(CCO)CC2)n1 [dasatanib] + Cn1cncc1[C@@](N)(c1ccc(Cl)cc1)c1ccc2c(c1)c(-c1cccc(Cl)c1)cc(=O)n2C [tipifarnib] (first compound 0.004 µM, partner dose 0.01 µM)",60.6%,56.4%,72.6%,75.3%,81.6%,59%
"OCCn1cc(-c2cnc3nnn(Cc4ccc5ncccc5c4)c3n2)cn1 + O=c1cc(-c2cccc3c2Sc2ccccc2S3)oc(N2CCOCC2)c1 [KU55933] (first compound 1 µM, partner dose 1 µM)",105%,104%,93%,88.4%,92.8%,101%
"OCCn1cc(-c2cnc3nnn(Cc4ccc5ncccc5c4)c3n2)cn1 + Oc1cc(-c2nc(-c3ccccc3)[nH]c2-c2ccncc2)ccc1Cl [L779450] (first compound 1 µM, partner dose 0.2 µM)",98.4%,93.7%,93.2%,88.9%,73.2%,111%
"C[C@]1(c2nc3c(C(N)=O)cccc3[nH]2)CCCN1 [Veliparib] + Cn1nnc2c(C(N)=O)ncn2c1=O [temozolomide] (first compound 1.4 µM, partner dose 2 µM)",83.3%,80.5%,89.2%,85.9%,97.4%,73.8%
"NC(=O)Nc1cc(-c2cccc(F)c2)sc1C(=O)N[C@H]1CCCNC1 + O=c1cc(-c2cccc3c2Sc2ccccc2S3)oc(N2CCOCC2)c1 [KU55933] (first compound 0.02 µM, partner dose 1 µM)",96.1%,88%,104%,81.8%,43.6%,83.7%
"OCCn1cc(-c2cnc3nnn(Cc4ccc5ncccc5c4)c3n2)cn1 + COc1cc2c(Oc3ccc4[nH]c(C)cc4c3F)ncnc2cc1OCCCN1CCCC1 [cediranib] (first compound 1 µM, partner dose 0.4 µM)",104%,85.7%,85.1%,78.4%,97.3%,92.7%
"Cc1nc(Nc2ncc(C(=O)Nc3c(C)cccc3Cl)s2)cc(N2CCN(CCO)CC2)n1 [dasatanib] + CCCCCCCCCCCC1=C(O)C(=O)C=C(O)C1=O [Embelin] (first compound 0.004 µM, partner dose 1.2 µM)",84.3%,89.1%,62.5%,92.3%,104%,83.2%
"OCCn1cc(-c2cnc3nnn(Cc4ccc5ncccc5c4)c3n2)cn1 + O=C(O)C(=O)Nc1sc2c(c1C(=O)O)CCNC2 [TCS401] (first compound 1 µM, partner dose 1.66667 µM)",97.2%,92.1%,91.3%,99.5%,95.2%,74.6%
"OCCn1cc(-c2cnc3nnn(Cc4ccc5ncccc5c4)c3n2)cn1 + C[C@@H]1CCN(C(=O)CC#N)C[C@@H]1N(C)c1ncnc2[nH]ccc12 [CP690550] (first compound 1 µM, partner dose 1 µM)",96.4%,99%,103%,132%,102%,113%
"OCCn1cc(-c2cnc3nnn(Cc4ccc5ncccc5c4)c3n2)cn1 + CCc1ccc(CCOc2ccc(CC3SC(=O)NC3=O)cc2)nc1 [pioglitazone] (first compound 1 µM, partner dose 2 µM)",96%,89.1%,82.5%,94.9%,102%,95.1%
"C[C@]1(c2nc3c(C(N)=O)cccc3[nH]2)CCCN1 [Veliparib] + CCN(CC)CCCCNc1ncc2cc(-c3cc(OC)cc(OC)c3)c(NC(=O)NC(C)(C)C)nc2n1 [PD173074] (first compound 1.4 µM, partner dose 0.1 µM)",76.4%,88.3%,86%,89.8%,98.9%,101%
"NCC(=O)Nc1ccc(-n2nc(C(F)(F)F)cc2-c2ccc3c(ccc4ccccc43)c2)cc1 + COc1ccc(COc2ccc(Cc3cnc(N)nc3N)cc2OC)cc1 [GW2580] (first compound 1 µM, partner dose 1 µM)",85.6%,109%,86.6%,55%,119%,63.3%
"OCCn1cc(-c2cnc3nnn(Cc4ccc5ncccc5c4)c3n2)cn1 + CC(C)CCN1c2nc(Nc3cc(F)c(O)c(F)c3)ncc2N(C)C(=O)C1C [BID1870] (first compound 1 µM, partner dose 0.2 µM)",103%,94.9%,103%,75.5%,97.8%,112%
"CO[C@@H]1[C@H](N(C)C(=O)c2ccccc2)C[C@H]2O[C@]1(C)n1c3ccccc3c3c4c(c5c6ccccc6n2c5c31)C(=O)NC4 [Midostaurin] + COc1cc2ncnc(Nc3ccc(Oc4ccccc4)cc3)c2cc1OC [SrcI1] (first compound 0.08 µM, partner dose 2 µM)",87.7%,50.3%,65.5%,97.6%,93%,99.6%
"CN(C)S(=O)(=O)c1ccc2c(c1)/C(=C/c1cc3c([nH]1)CCCC3)C(=O)N2 + Cn1cc(/C=C2\C(=O)Nc3cccnc32)c2ccccc21 [GW441756] (first compound 0.4 µM, partner dose 0.4 µM)",82.5%,113%,108%,113%,124%,115%
"NCC(=O)Nc1ccc(-n2nc(C(F)(F)F)cc2-c2ccc3c(ccc4ccccc43)c2)cc1 + COc1cc(N2CCC(N3CCN(C)CC3)CC2)ccc1Nc1ncc(Cl)c(Nc2ccccc2S(=O)(=O)C(C)C)n1 [NVP-TAE684] (first compound 1 µM, partner dose 0.08 µM)",83.3%,92.2%,81.3%,55.1%,106%,53%
"C=CCn1c(=O)c2cnc(Nc3ccc(N4CCN(C)CC4)cc3)nc2n1-c1cccc(C(C)(C)O)n1 + Oc1cc(-c2nc(-c3ccccc3)[nH]c2-c2ccncc2)ccc1Cl [L779450] (first compound 0.02 µM, partner dose 0.2 µM)",76.5%,82.1%,77.4%,68.7%,67.8%,98.2%
"Cc1nc(Nc2ncc(C(=O)Nc3c(C)cccc3Cl)s2)cc(N2CCN(CCO)CC2)n1 [dasatanib] + Cn1c(Nc2ccc(C(F)(F)F)cc2)nc2cc(Oc3ccnc(-c4ncc(C(F)(F)F)[nH]4)c3)ccc21 [CHIR265] (first compound 0.004 µM, partner dose 0.08 µM)",46.9%,68%,65.9%,64.6%,71.2%,52%
"NC(=O)Nc1cc(-c2cccc(F)c2)sc1C(=O)N[C@H]1CCCNC1 + COc1ccc2c(c1)CCC1C2CCC2(C)C(NCCCCCCN3C(=O)C=CC3=O)CCC12 [U73122] (first compound 0.02 µM, partner dose 0.4 µM)",97.2%,77.6%,100%,105%,80.6%,100%

# — the supplement of paper PMC4604168 (melanoma cell lines)
